# From the supplement of paper PMC10037445
# Over roughly 2,900 compounds, “NF-kB SEAP reporter activity, fold change vs agonist alone” has its median near 0.99; the highest 2% begin near 2.6. This is one part of the list.
# Tests used:
# RAW-Dual [1] = assay: NF-kB SEAP reporter activity, fold change vs agonist alone; cytotoxicity flag (confluency mask): not cytotoxic; higher = enhanced NF-kB activity
# How it was run: (§1)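 RAW-Dual macrophages were seeded in DMEM at 50,000 cells/well in 384-well plates, given 50 nL of library stock by pin tool, and given a PRR agonist 1 h later. Plates were held at 37 °C, 5% CO2 for 20 hours, after which supernatant was read for IRF by QuantiLuc luminescence and for NF-κB by QuantiBlue absorbance at 620 nm. Reporter activity is expressed as fold change over wells that received agonist alone. A well was called cytotoxic when IncuCyte confluency fell below 70% of agonist controls in both mask sets.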
# RAW-Dual [2] = assay: NF-kB SEAP reporter activity, fold change vs agonist alone; higher = enhanced NF-kB activity; conditions: library stock concentration (final ~1000-fold dilution): 10 mM
# How it was run: as §1
# RAW-Dual [3] = assay: NF-kB SEAP reporter activity, fold change vs agonist alone; cytotoxicity flag (confluency mask): cytotoxic (confluency <70% of control); higher = enhanced NF-kB activity
# How it was run: as §1
# [4] = agonist: ODN 1826 (TLR9) 0.5 ug/mL
# [5] = agonist: Pam2CSK4 (TLR2/6) 0.1 ug/mL
# [6] = agonist: Pam3CSK4 (TLR2/1) 0.1 ug/mL
# [7] = cytotoxicity flag (confluency mask): not cytotoxic, agonist: MPLA (TLR4) […]
# [8] = cytotoxicity flag (confluency mask): not cytotoxic, agonist: Imiquimod (TLR7) […]
# [9] = cytotoxicity flag (confluency mask): cytotoxic (confluency <70% of control), agonist: Imiquimod (TLR7) […]
# [10] = cytotoxicity flag (confluency mask): cytotoxic (confluency <70% of control), agonist: MPLA (TLR4) […]
smiles,measurement,setting,value
Cc1ccc(C(C)C)cc1O (library stock concentration (final ~1000-fold dilution): 10 mM),NF-kB SEAP reporter activity,RAW-Dual [1]; agonist: LPS (TLR4) 0.1 ug/mL,1.14
same,NF-kB SEAP reporter activity,RAW-Dual [1]; [4],1.02
same,NF-kB SEAP reporter activity,RAW-Dual [1]; [5],1.02
same,NF-kB SEAP reporter activity,RAW-Dual [1]; [6],1.31
Cc1cc[nH]n1,NF-kB SEAP reporter activity,RAW-Dual [2]; [7],1.09
Cc1cc[nH]n1 (library stock concentration (final ~1000-fold dilution): 10 mM),NF-kB SEAP reporter activity,RAW-Dual [1]; agonist: LPS (TLR4) 0.1 ug/mL,1.15
same,NF-kB SEAP reporter activity,RAW-Dual [1]; [4],0.951
same,NF-kB SEAP reporter activity,RAW-Dual [1]; [5],1.12
same,NF-kB SEAP reporter activity,RAW-Dual [1]; [6],1.04
Cl.O=C1CN2Cc3c(ccc(Cl)c3Cl)NC2=N1,NF-kB SEAP reporter activity,RAW-Dual [2]; [8],1.34
same,NF-kB SEAP reporter activity,RAW-Dual [2]; [7],1.26
Cl.O=C1CN2Cc3c(ccc(Cl)c3Cl)NC2=N1 (library stock concentration (final ~1000-fold dilution): 10 mM),NF-kB SEAP reporter activity,RAW-Dual [1]; agonist: LPS (TLR4) 0.1 ug/mL,0.887
same,NF-kB SEAP reporter activity,RAW-Dual [1]; [4],1.24
same,NF-kB SEAP reporter activity,RAW-Dual [1]; [5],0.872
same,NF-kB SEAP reporter activity,RAW-Dual [1]; [6],1.01
COc1ccc(-c2ccc3ncc4c(c3c2)n(-c2ccc(N3CCNCC3)c(C(F)(F)F)c2)c(=O)n4C)cn1.O=C(O)/C=C\C(=O)O (library stock concentration (final ~1000-fold dilution): 10 mM),NF-kB SEAP reporter activity,RAW-Dual [3]; agonist: LPS (TLR4) 0.1 ug/mL,0.236
same,NF-kB SEAP reporter activity,RAW-Dual [3]; [4],0.205
same,NF-kB SEAP reporter activity,RAW-Dual [3]; [5],0.085
same,NF-kB SEAP reporter activity,RAW-Dual [3]; [6],0.217
COc1ccc(-c2ccc3ncc4c(c3c2)n(-c2ccc(N3CCNCC3)c(C(F)(F)F)c2)c(=O)n4C)cn1.O=C(O)/C=C\C(=O)O,NF-kB SEAP reporter activity,RAW-Dual [2]; [9],0.273
same,NF-kB SEAP reporter activity,RAW-Dual [2]; [10],0.298
COc1ncc(-c2cc(-c3ncc(CN4CC(C)OC(C)C4)o3)c3cn[nH]c3c2)cc1NS(C)(=O)=O (stereo not given) (library stock concentration (final ~1000-fold dilution): 10 mM),NF-kB SEAP reporter activity,RAW-Dual [3]; agonist: LPS (TLR4) 0.1 ug/mL,5.18
same,NF-kB SEAP reporter activity,RAW-Dual [3]; [4],0.639
same,NF-kB SEAP reporter activity,RAW-Dual [3]; [5],1.01
same,NF-kB SEAP reporter activity,RAW-Dual [3]; [6],1.39
COc1ncc(-c2cc(-c3ncc(CN4CC(C)OC(C)C4)o3)c3cn[nH]c3c2)cc1NS(C)(=O)=O (stereo not given),NF-kB SEAP reporter activity,RAW-Dual [2]; [9],0.604
same,NF-kB SEAP reporter activity,RAW-Dual [2]; [10],2.18
Cc1cc(-c2ccccc2)nnc1NCCN1CCOCC1.Cl.Cl (library stock concentration (final ~1000-fold dilution): 10 mM),NF-kB SEAP reporter activity,RAW-Dual [1]; agonist: LPS (TLR4) 0.1 ug/mL,1.35
same,NF-kB SEAP reporter activity,RAW-Dual [1]; [4],1.33
same,NF-kB SEAP reporter activity,RAW-Dual [1]; [5],1.02
same,NF-kB SEAP reporter activity,RAW-Dual [1]; [6],1.19
Cc1cc(-c2ccccc2)nnc1NCCN1CCOCC1.Cl.Cl,NF-kB SEAP reporter activity,RAW-Dual [2]; [8],1.35
same,NF-kB SEAP reporter activity,RAW-Dual [2]; [7],1.27
CC(C)=CCC[C@@H](C)CCO (library stock concentration (final ~1000-fold dilution): 10 mM),NF-kB SEAP reporter activity,RAW-Dual [1]; agonist: LPS (TLR4) 0.1 ug/mL,1.1
same,NF-kB SEAP reporter activity,RAW-Dual [1]; [4],1.14
same,NF-kB SEAP reporter activity,RAW-Dual [1]; [5],1.11
same,NF-kB SEAP reporter activity,RAW-Dual [1]; [6],1.1
CC(C)=CCC[C@@H](C)CCO,NF-kB SEAP reporter activity,RAW-Dual [2]; [8],0.998
same,NF-kB SEAP reporter activity,RAW-Dual [2]; [7],1.12
COc1ccc(OC)c(C2C(C#N)=C(N)Oc3[nH]nc(-c4ccc5ccccc5c4)c32)c1 (stereo not given) (library stock concentration (final ~1000-fold dilution): 10 mM),NF-kB SEAP reporter activity,RAW-Dual [1]; agonist: LPS (TLR4) 0.1 ug/mL,1.12
same,NF-kB SEAP reporter activity,RAW-Dual [1]; [4],0.869
same,NF-kB SEAP reporter activity,RAW-Dual [1]; [5],0.75
same,NF-kB SEAP reporter activity,RAW-Dual [1]; [6],0.707
COc1ccc(OC)c(C2C(C#N)=C(N)Oc3[nH]nc(-c4ccc5ccccc5c4)c32)c1 (stereo not given),NF-kB SEAP reporter activity,RAW-Dual [2]; [8],0.966
same,NF-kB SEAP reporter activity,RAW-Dual [2]; [7],1.39
CC12CCC3c4ccc(O)cc4CCC3C1CCC2OC(=O)CCC1CCCC1 (stereo not given),NF-kB SEAP reporter activity,RAW-Dual [2]; [9],1.32
same,NF-kB SEAP reporter activity,RAW-Dual [2]; [10],1.06
CC12CCC3c4ccc(O)cc4CCC3C1CCC2OC(=O)CCC1CCCC1 (stereo not given) (library stock concentration (final ~1000-fold dilution): 10 mM),NF-kB SEAP reporter activity,RAW-Dual [3]; agonist: LPS (TLR4) 0.1 ug/mL,0.778
same,NF-kB SEAP reporter activity,RAW-Dual [3]; [4],0.986
same,NF-kB SEAP reporter activity,RAW-Dual [3]; [5],1.01
same,NF-kB SEAP reporter activity,RAW-Dual [3]; [6],0.995
O=C1C[C@@H](c2ccc(O)cc2)Oc2cc(O)cc(O)c21,NF-kB SEAP reporter activity,RAW-Dual [2]; [8],1.13
same,NF-kB SEAP reporter activity,RAW-Dual [2]; [7],1.19
O=C1C[C@@H](c2ccc(O)cc2)Oc2cc(O)cc(O)c21 (library stock concentration (final ~1000-fold dilution): 10 mM),NF-kB SEAP reporter activity,RAW-Dual [1]; agonist: LPS (TLR4) 0.1 ug/mL,0.961
same,NF-kB SEAP reporter activity,RAW-Dual [1]; [4],0.78
same,NF-kB SEAP reporter activity,RAW-Dual [1]; [5],0.391
same,NF-kB SEAP reporter activity,RAW-Dual [1]; [6],0.577
Cc1ccc([N+](=O)[O-])cc1S(=O)(=O)N(C)C (library stock concentration (final ~1000-fold dilution): 10 mM),NF-kB SEAP reporter activity,RAW-Dual [1]; agonist: LPS (TLR4) 0.1 ug/mL,1.07
same,NF-kB SEAP reporter activity,RAW-Dual [1]; [4],0.867
same,NF-kB SEAP reporter activity,RAW-Dual [1]; [5],0.994
same,NF-kB SEAP reporter activity,RAW-Dual [1]; [6],1.36
Cc1ccc([N+](=O)[O-])cc1S(=O)(=O)N(C)C,NF-kB SEAP reporter activity,RAW-Dual [2]; [8],0.951
same,NF-kB SEAP reporter activity,RAW-Dual [2]; [7],1.14
NC(=O)c1ccccn1 (library stock concentration (final ~1000-fold dilution): 10 mM),NF-kB SEAP reporter activity,RAW-Dual [1]; agonist: LPS (TLR4) 0.1 ug/mL,1.07
same,NF-kB SEAP reporter activity,RAW-Dual [1]; [4],0.942
same,NF-kB SEAP reporter activity,RAW-Dual [1]; [5],1.06
same,NF-kB SEAP reporter activity,RAW-Dual [1]; [6],0.836
NC(=O)c1ccccn1,NF-kB SEAP reporter activity,RAW-Dual [2]; [7],1.08
Cl.N=C1CCCN1Cc1[nH]c(=O)[nH]c(=O)c1Cl (library stock concentration (final ~1000-fold dilution): 10 mM),NF-kB SEAP reporter activity,RAW-Dual [1]; agonist: LPS (TLR4) 0.1 ug/mL,1.08
same,NF-kB SEAP reporter activity,RAW-Dual [1]; [4],1.03
same,NF-kB SEAP reporter activity,RAW-Dual [1]; [5],1.1
same,NF-kB SEAP reporter activity,RAW-Dual [1]; [6],1.07
Cl.N=C1CCCN1Cc1[nH]c(=O)[nH]c(=O)c1Cl,NF-kB SEAP reporter activity,RAW-Dual [2]; [8],1.01
same,NF-kB SEAP reporter activity,RAW-Dual [2]; [7],1.1
COc1ccccc1N1CCN(CCN(C(=O)C2CCCCC2)c2ccccn2)CC1.O=C(O)/C=C\C(=O)O,NF-kB SEAP reporter activity,RAW-Dual [2]; [8],1.03
same,NF-kB SEAP reporter activity,RAW-Dual [2]; [7],1.05
COc1ccccc1N1CCN(CCN(C(=O)C2CCCCC2)c2ccccn2)CC1.O=C(O)/C=C\C(=O)O (library stock concentration (final ~1000-fold dilution): 10 mM),NF-kB SEAP reporter activity,RAW-Dual [1]; agonist: LPS (TLR4) 0.1 ug/mL,1.03
same,NF-kB SEAP reporter activity,RAW-Dual [1]; [4],0.975
same,NF-kB SEAP reporter activity,RAW-Dual [1]; [5],1.05
same,NF-kB SEAP reporter activity,RAW-Dual [1]; [6],1.18
